# Assay results from the supplement of paper PMC10338343.
# ± gives the standard deviation. The list shows a part of the results, in another mix than the full data.
# Test system: MIWI (PIWIL1) piRISC loaded with piRNA #1 (30 nt)
# Assay: pre-steady-state target cleavage rate (min^-1); MIWI and MILI are mouse PIWI proteins and EfPiwi is from a freshwater sponge; tags in brackets are library labels; higher = faster piRNA-guided slicing of the target
# Settings: guide: piRNA #1 5'p-UGAGGUAGUAGGUUGUAUAGUAUCCAGAGG; auxiliary factor: 500 nM mouse GTSF1
# Summary of the method: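 In HEPES–potassium acetate buffer at 33 °C, […] transcribed, DNA-blocked target RNA library was mixed with 1 nM active affinity-purified piRISC carrying one synthetic guide, with or without 500 nM GTSF1 partner protein, for 0–8 or 0–960 min. Uncleaved targets were sequenced and normalised to depth and to weakly complementary targets; three trials were pooled and k3 was capped at 0.0001 min^-1. The pre-steady-state cleavage rate followed from a burst-and-steady-state fit.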
# 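Further: 1 nM active piRISC with 0.1 nM target library at 33 °C single turnover.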
row,Sequence,pre-steady-state target cleavage rate
1,CCUCUGGAUACUAUACAUCCUACUACCACA,1.56 ± 0.12
2,GGAGACCUUACUAUACAACCUACUUGGAGA [g7:g22:cont:t1A],0.0938 ± 0.021
3,GGAGACCUUACUAUACAAGCUACUACCACA,0.89 ± 0.044
4,GGAGUGGAUACUAUACAUCCUACUACCUCA,1.18 ± 0.056
5,GGAGACCUAUGUAUACAACCUACUACGCUCA,0.175 ± 0.023
6,CCUGUGGAUACAAUACAACCUACUACCUCA,1.9 ± 0.13
7,GGAGAGGAUACUAUACAACCUACUACCGCA,0.306 ± 0.027
8,GGAGACCAUACUAUACAACCUACUACCUCG [g2:g23:cont:t1G],1.52 ± 0.081
9,GCUCUGGAUACAAUACAACCAACUACCUCA,0.147 ± 0.019
10,GGAGAGGAUACUAUUACAACCUACUACCUCA,1.23 ± 0.07
11,CCUCUGAUACUAUACAACCUACUACCUCA,2.11 ± 0.12
12,GGAGUGGAAACUAUACAACCUACAACCUCA,0.353 ± 0.05
13,GGUCAGGAUACUAUACAACCUUCUACCUCA,0.64 ± 0.039
14,CCUCUGGAUACUAUACAACCUUCUACGUCA,0.53 ± 0.034
15,CCUCUGGAAACUAUACAACCUACUACGUCA,1.28 ± 0.1
16,GGAGACCUAUGUAUGACAACCUACUACCUCA,0.00373 ± 0.0037
17,GGAGACGAUACUAUACAACCUAGUACCUGA,0.017 ± 0.0076
18,GGAGACCUUACUAAACAACCUACUACCACA,0.318 ± 0.036
19,GCUCUGCAUACUUUACAACCUACUACCUCA,1.68 ± 0.11
20,GGAGACCUUACUAUACAAGCUACAACCUCA,0.542 ± 0.045

row,Sequence,pre-steady-state target cleavage rate
1,GGAGAGCAUACUAUACAACCAACUACCUCA,0.115 ± 0.011
2,CCUCUGGAUACUAUACUUCCUACUACCUCA,0.317 ± 0.036
3,GGAGACGAUAGUUUACAACCUACUACCUCA,0.565 ± 0.075
4,GGAGUGGAUACUAUACAUCGUACUACCUCA,0.464 ± 0.048
5,GGAGAGGAUACUAUACAACCUACUACCUGCA,0.907 ± 0.073
6,GGAGACCAUACUAUACAACCUACUACGAGA,0.355 ± 0.068
7,GGAGACCUAUCUAUACAAUCUACUACCUCA,0.214 ± 0.016
8,GGAGUGGAUUGAAUACAACCUACUACCUCA,0.202 ± 0.027
9,GGAGAGGAUAGUAAACAACCUACUACCUCA,0.125 ± 0.027
10,GGAGAGGAUACUACACAACCUACUACCUCA,1.41 ± 0.069
11,CCUCUGGAUACUAUACAACCAUCUACCUCA,0.0452 ± 0.0097
12,CCUCUGGAUACUAUACAACCUACAUGCUCA,0.739 ± 0.085
13,GGAGUGGAUACUAUACAACCGACUACCUCA,0.0107 ± 0.0017
14,CCUCUGGAUACUAUACAAGGUACUACCUCA,0.426 ± 0.033
15,GGAGACGAUACUAAACAACCUACUACCUGA,0.66 ± 0.093
16,GGAGACGAUCCUAUACAACCUACUACCUCA,1.85 ± 0.17
17,GGUCUGGAAACUAUACAACCUACUACGUCA,0.506 ± 0.059
18,GCUCUGGAUAGUAUACAACCAACUACCUCA,0.127 ± 0.015
19,GGAGACCUAUGAUAUGUUCCUAACUACCUCA,< 0.0001
20,GGAGAGGAAACUAUACAACCUACUACCACA,0.981 ± 0.095
